# Laboratory results: a collection of fitness landscapes (doi:10.1016/j.celrep.2020.107928)
# Over roughly 81,000 sequences, “one-hybrid fitness for binding parS DNA” has its median near -0.17; the highest 2% begin near 0.51. Some of the results follow.
# B1: Caulobacter ParB omega fusion; a variant is named by its letters at X, in order, B8GW30 (parent)
# chain: MESVVVGEPGMSEGRRGLGRGLSALLGEVDAAPAQAPGEQLGGSREAPIEILQRNPDQPRRTFREEDLEDLSNSIREKGVLQPILVRPSPDTAGEYQIVAGERAWRAAQRAGLKTVPIMVRELDDLAVLEIGIIENVQRADLNVLEEALSYKVLMEKFERTQENIAQTIGKSXSHVANXMRLLXLPDEVQSYLVSGELTAXHARAIAAAADPVALAKQIIEGGLSVRETEALARKAPNLSAGKSKGGRPPRVKDTDTQALESDLSSVLGLDVSIDHRGSTGTLTITYATLEQLDDLCNRLTRGI
# Variants of: B1
# Experiment: one-hybrid fitness for binding parS DNA (scaled: cognate 1, non-cognate 0); higher = stronger binding
# Settings: with parS DNA site
# Method in brief: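 Values were rescaled so that cognate is 1 and non-cognate is 0. Each is a fitness, the log change in a variant's read ratio to wild type from Illumina reads of plasmids before and after selection, with three replicate libraries pooled and variants under 10 reads dropped. Selection of the Caulobacter ParB libraries, four specificity codons randomised, used E. coli USO with a HIS3 reporter, site 19 bp from the promoter, on M9-minus-histidine with 0.1 mM IPTG and 5 mM 3-AT for 48 hours at 37°C.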
row,Variant,one-hybrid fitness for binding parS DNA
1,PIAL,≤ 0.2
2,SFSS,≤ 0.2
3,SIAM,≤ 0.2
4,HYTR,≤ 0.2
5,QNQL,≤ 0.2
6,KARN,≤ 0.2
7,MTKQ,≤ 0.2
8,LIQC,≤ 0.2
9,FTKC,≤ 0.2
10,QWLL,≤ 0.2
11,RAEI,≤ 0.2
12,LWVG,≤ 0.2
13,PTSE,≤ 0.2
14,DQNF,≤ 0.2
15,HNTN,≤ 0.2
16,RVDP,≤ 0.2
17,ARMT,≤ 0.2
18,RNDD,≤ 0.2
19,TTWD,≤ 0.2
20,VEHY,≤ 0.2
21,VNKN,≤ 0.2
22,RQDD,≤ 0.2
23,ALMT,≤ 0.2
24,VLRD,≤ 0.2
25,AVVY,≤ 0.2
26,VYPC,≤ 0.2

row,Variant,one-hybrid fitness for binding parS DNA
1,MFLG,≤ 0.2
2,TAVS,≤ 0.2
3,MRNS,≤ 0.2
4,PLTK,≤ 0.2
5,TNPH,≤ 0.2
6,KLPC,≤ 0.2
7,ALKR,≤ 0.2
8,REMK,≤ 0.2
9,HASI,≤ 0.2
10,WSCR,≤ 0.2
11,YIRR,≤ 0.2
12,KASV,≤ 0.2
13,HSST,≤ 0.2
14,PFKE,≤ 0.2
15,RRRR,≤ 0.2
16,FHPS,≤ 0.2
17,AEEY,≤ 0.2
18,GGRR,≤ 0.2
19,HVSY,≤ 0.2
20,QHQV,≤ 0.2
21,PYDN,≤ 0.2
22,NDIV,≤ 0.2
23,RGMW,≤ 0.2
24,RFQH,≤ 0.2
25,VKIS,≤ 0.2
26,PHQL,≤ 0.2

row,Variant,one-hybrid fitness for binding parS DNA
1,HRRV,≤ 0.2
2,RALD,≤ 0.2
3,NPSH,≤ 0.2
4,QLVF,≤ 0.2
5,LPYN,≤ 0.2
6,ELRG,≤ 0.2
7,SPTL,≤ 0.2
8,QLRN,≤ 0.2
9,PTMQ,≤ 0.2
10,RGTA,0.376
11,MLAD,≤ 0.2
12,CYLC,≤ 0.2
13,NHTV,≤ 0.2
14,TSPF,≤ 0.2
15,LSYM,≤ 0.2
16,CASS,≤ 0.2
17,AFAG,≤ 0.2
18,PSGA,≤ 0.2
19,SHIP,≤ 0.2
20,HHLI,≤ 0.2
21,EAPW,≤ 0.2
22,RCPY,0.276
23,HAGF,≤ 0.2
24,ESLR,≤ 0.2
25,GAEP,≤ 0.2
26,ELPK,≤ 0.2

row,Variant,one-hybrid fitness for binding parS DNA
1,RLFM,0.369
2,CWIR,≤ 0.2
3,PGWR,≤ 0.2
4,HLDG,≤ 0.2
5,HSLW,≤ 0.2
6,FGAT,≤ 0.2
7,MFRK,≤ 0.2
8,AYQG,≤ 0.2
9,PAIM,≤ 0.2
10,AVYR,≤ 0.2
11,NKVR,≤ 0.2
12,RKEP,≤ 0.2
13,YSLR,≤ 0.2
14,SKIL,≤ 0.2
15,IPMD,≤ 0.2
16,TQKA,≤ 0.2
17,CSPP,≤ 0.2
18,FHKL,≤ 0.2
19,PNAN,≤ 0.2
20,DTPR,≤ 0.2
21,RKQR,≤ 0.2
22,ECKR,≤ 0.2
23,NWAR,≤ 0.2
24,WWCY,≤ 0.2
25,QHSH,≤ 0.2
26,DPLE,≤ 0.2

row,Variant,one-hybrid fitness for binding parS DNA
1,LTCC,≤ 0.2
2,EKCC,≤ 0.2
3,TRGE,≤ 0.2
4,TKAF,≤ 0.2
5,KHVM,≤ 0.2
6,LVVV,≤ 0.2
7,YTRS,≤ 0.2
8,SNVG,≤ 0.2
9,GGSP,≤ 0.2
10,HTKF,≤ 0.2
11,FPTT,≤ 0.2
12,CRHK,≤ 0.2
13,QPSE,≤ 0.2
14,MRNR,≤ 0.2
15,HIES,≤ 0.2
16,IDDR,≤ 0.2
17,QPAF,≤ 0.2
18,TSTH,≤ 0.2
19,MLRE,≤ 0.2
20,PCSK,≤ 0.2
21,YTTF,≤ 0.2
22,VQHI,≤ 0.2
23,DVDC,≤ 0.2
24,TFLK,≤ 0.2
25,RWAV,≤ 0.2
26,WSED,≤ 0.2

row,Variant,one-hybrid fitness for binding parS DNA
1,HGAD,≤ 0.2
2,GRTE,≤ 0.2
3,ERKR,≤ 0.2
4,ALGL,≤ 0.2
5,NTDR,≤ 0.2
6,GSIA,≤ 0.2
7,WEIL,≤ 0.2
8,DSNG,≤ 0.2
9,RYDY,0.422
10,ACPY,≤ 0.2
11,ERHV,≤ 0.2
12,TTEN,≤ 0.2
13,RKCV,≤ 0.2
14,LQAL,≤ 0.2
15,SCKS,≤ 0.2
16,DAWC,≤ 0.2
17,CNGV,≤ 0.2
18,RTLP,≤ 0.2
19,LHEV,≤ 0.2
20,QSQT,≤ 0.2
21,QYMM,≤ 0.2
22,VFTY,≤ 0.2
23,SIGM,≤ 0.2
